{"source": "the supplement of paper PMC10037445", "key": {"RAW-Dual [1]": {"test_system": "RAW-Dual", "assay": "IRF Lucia reporter activity, fold change vs agonist alone; cytotoxicity flag (confluency mask): not cytotoxic; higher = enhanced IRF activity", "method_in_brief": "(§1)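 RAW-Dual macrophages (50,000 cells/well in DMEM, 384-well plates) received 50 nL of library stock by pin tool, then a PRR agonist 1 h later, and were kept at 37 °C, 5% CO2. After 20 hours, supernatant was read for IRF by QuantiLuc luminescence and for NF-κB by QuantiBlue absorbance at 620 nm. Reporter activity is fold change over agonist-alone wells. Cytotoxic wells had IncuCyte confluency below 70% of agonist controls in both mask sets.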"}, "RAW-Dual [2]": {"test_system": "RAW-Dual", "assay": "IRF Lucia reporter activity, fold change vs agonist alone; higher = enhanced IRF activity", "conditions": "library stock concentration (final ~1000-fold dilution): 10 mM, agonist: MPLA (TLR4) […]", "method_in_brief": "as §1"}, "RAW-Dual [3]": {"test_system": "RAW-Dual", "assay": "IRF Lucia reporter activity, fold change vs agonist alone; cytotoxicity flag (confluency mask): cytotoxic (confluency <70% of control); higher = enhanced IRF activity", "method_in_brief": "as §1"}, "[4]": {"conditions": "agonist: 3'3'-cGAMP (STING) 10 ug/mL"}, "[5]": {"conditions": "cytotoxicity flag (confluency mask): not cytotoxic"}}, "note": "The full ranking holds about 2,900 compounds; the median of “IRF Lucia reporter activity, fold change vs agonist alone” is about 0.9, and the highest 2% start at about 2.8. Some of the results follow."}
{"smiles": "O=C(/C=C/c1ccc(O)c(O)c1)O[C@@H]1C[C@](OC(=O)/C=C/c2ccc(O)c(O)c2)(C(=O)O)C[C@@H](O)[C@H]1O", "note": "(library stock concentration (final ~1000-fold dilution): 10 mM)", "values": [{"measurement": "IRF Lucia reporter activity", "setting": "RAW-Dual [1]; [4]", "result": 0.0251}, {"measurement": "IRF Lucia reporter activity", "setting": "RAW-Dual [1]; agonist: LPS (TLR4) 0.1 ug/mL", "result": 0.087}]}
{"smiles": "CC1OC(OC2C(Oc3cc(O)c(C(=O)CCc4ccc(O)cc4)c(O)c3)OC(CO)C(O)C2O)C(O)C(O)C1O", "note": "(stereo not drawn) (library stock concentration (final ~1000-fold dilution): 10 mM)", "values": [{"measurement": "IRF Lucia reporter activity", "setting": "RAW-Dual [1]; [4]", "result": 0.98}, {"measurement": "IRF Lucia reporter activity", "setting": "RAW-Dual [1]; agonist: LPS (TLR4) 0.1 ug/mL", "result": 1.02}]}
{"smiles": "CC1OC(OC2C(Oc3cc(O)c(C(=O)CCc4ccc(O)cc4)c(O)c3)OC(CO)C(O)C2O)C(O)C(O)C1O", "note": "(stereo not drawn)", "values": [{"measurement": "IRF Lucia reporter activity", "setting": "RAW-Dual [2]; [5]", "result": 1.01}]}
{"smiles": "NC1=NC2(c3cc(NC(=O)c4ccc(F)cn4)ccc3F)COCC2CS1", "note": "(stereo not drawn) (library stock concentration (final ~1000-fold dilution): 10 mM)", "values": [{"measurement": "IRF Lucia reporter activity", "setting": "RAW-Dual [1]; [4]", "result": 1.08}, {"measurement": "IRF Lucia reporter activity", "setting": "RAW-Dual [1]; agonist: LPS (TLR4) 0.1 ug/mL", "result": 0.998}]}
{"smiles": "NC1=NC2(c3cc(NC(=O)c4ccc(F)cn4)ccc3F)COCC2CS1", "note": "(stereo not drawn)", "values": [{"measurement": "IRF Lucia reporter activity", "setting": "RAW-Dual [2]; [5]", "result": 1.04}]}
{"smiles": "CC(Oc1ccc2[nH]nc(/C=C/c3cnn(CCO)c3)c2c1)c1c(Cl)cncc1Cl", "note": "(stereo not drawn)", "values": [{"measurement": "IRF Lucia reporter activity", "setting": "RAW-Dual [2]; cytotoxicity flag (confluency mask): cytotoxic (confluency <70% of control)", "result": 0.0243}]}
{"smiles": "CC(Oc1ccc2[nH]nc(/C=C/c3cnn(CCO)c3)c2c1)c1c(Cl)cncc1Cl", "note": "(stereo not drawn) (library stock concentration (final ~1000-fold dilution): 10 mM)", "values": [{"measurement": "IRF Lucia reporter activity", "setting": "RAW-Dual [3]; [4]", "result": 0.0195}, {"measurement": "IRF Lucia reporter activity", "setting": "RAW-Dual [3]; agonist: LPS (TLR4) 0.1 ug/mL", "result": 0.0156}]}
{"smiles": "O=C(Nc1ccc(O)cc1)c1ccccc1O", "values": [{"measurement": "IRF Lucia reporter activity", "setting": "RAW-Dual [2]; [5]", "result": 1.02}]}
{"smiles": "O=C(Nc1ccc(O)cc1)c1ccccc1O", "note": "(library stock concentration (final ~1000-fold dilution): 10 mM)", "values": [{"measurement": "IRF Lucia reporter activity", "setting": "RAW-Dual [1]; [4]", "result": 0.523}, {"measurement": "IRF Lucia reporter activity", "setting": "RAW-Dual [1]; agonist: LPS (TLR4) 0.1 ug/mL", "result": 0.835}]}
{"smiles": "C=CC(=O)Nc1cccc(Nc2nc(Nc3ccc(N4CCN(C(C)=O)CC4)cc3OC)ncc2C(F)(F)F)c1", "values": [{"measurement": "IRF Lucia reporter activity", "setting": "RAW-Dual [2]; [5]", "result": 0.22}]}
{"smiles": "C=CC(=O)Nc1cccc(Nc2nc(Nc3ccc(N4CCN(C(C)=O)CC4)cc3OC)ncc2C(F)(F)F)c1", "note": "(library stock concentration (final ~1000-fold dilution): 10 mM)", "values": [{"measurement": "IRF Lucia reporter activity", "setting": "RAW-Dual [1]; [4]", "result": 0.0334}, {"measurement": "IRF Lucia reporter activity", "setting": "RAW-Dual [1]; agonist: LPS (TLR4) 0.1 ug/mL", "result": 0.193}]}
{"smiles": "CS(=O)(=O)CCNCc1ccc(-c2ccc3ncnc(Nc4ccc(OCc5cccc(F)c5)c(Cl)c4)c3c2)o1", "values": [{"measurement": "IRF Lucia reporter activity", "setting": "RAW-Dual [2]; [5]", "result": 1.6}]}
{"smiles": "CS(=O)(=O)CCNCc1ccc(-c2ccc3ncnc(Nc4ccc(OCc5cccc(F)c5)c(Cl)c4)c3c2)o1", "note": "(library stock concentration (final ~1000-fold dilution): 10 mM)", "values": [{"measurement": "IRF Lucia reporter activity", "setting": "RAW-Dual [1]; [4]", "result": 0.277}, {"measurement": "IRF Lucia reporter activity", "setting": "RAW-Dual [1]; agonist: LPS (TLR4) 0.1 ug/mL", "result": 1.43}]}
{"smiles": "Cl.O=C1NCC2(CCN(CCc3ccccc3)CC2)O1", "note": "(library stock concentration (final ~1000-fold dilution): 10 mM)", "values": [{"measurement": "IRF Lucia reporter activity", "setting": "RAW-Dual [1]; [4]", "result": 0.933}, {"measurement": "IRF Lucia reporter activity", "setting": "RAW-Dual [1]; agonist: LPS (TLR4) 0.1 ug/mL", "result": 0.706}]}
{"smiles": "Cl.O=C1NCC2(CCN(CCc3ccccc3)CC2)O1", "values": [{"measurement": "IRF Lucia reporter activity", "setting": "RAW-Dual [2]; [5]", "result": 0.939}]}
